# Reference: the supplement of paper PMC11417369
# ± gives the standard deviation of the averaged measurements. The list shows a part of the results.
# Test system: PfAP2-EXP AP2 domain (GST-tagged)
# Assay: gcPBM binding intensity (ln(normalized median fluorescence intensity)); higher = stronger DNA binding
# How it was run: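 The highest Masliner-normalised natural-log median intensity across replicate spots of either probe orientation is reported as binding intensity. GST-tagged P. falciparum DNA-binding domains expressed in E. coli were applied for 1 h to an Agilent 4 × 180k array of primer-extended double-stranded 36-bp intergenic genomic probes plus negative controls, and bound protein was detected with Alexa488 anti-GST antibody and scanned at 488 nm.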
row,Sequence,gcPBM binding intensity (ln)
1,AAAGAAAAAAAATAATGTACTTATGTATTTCAGAAA [XGTACX_site3570],8.515 ± 0.007
2,ATTTTTTTTTTTAATACACACAATTTTGATGAAGCA [CACACA_site3157],8.26 ± 0.41
3,TATAATATTTGGTGCACACAAATTAACAACTGTTTA [CACACA_site3742],9.47 ± 0.47
4,ACATTACCATATAAAACACACAAACATACATACATA [CACACA_site7709],8.69 ± 0.58
5,TTTCATAAGAGAAAGACACACAAATATATATTTATT [CACACA_site827],8.38 ± 0.44
6,TATCCATGCATTTACACACACACAAAAAAAAATTCT [CACACA_site4100],8.73 ± 0.47
7,TTTTAAATAATTCGTAATTATAATTATGGAAAAAAG [CACACA_negctrl_site152],8.43 ± 0.48
8,TGTATGTTATGTATATGTACATATCTTTGTATTTAT [XGTACX_site6920],8.73 ± 0.23
9,AAATAAATTAAAATAAATTAAATTAAATTAGCATTA [GTGCAC_negctrl_site531],7.67 ± 0.36
10,TTTATTTTTTACCAAGTGCAATATATTATAATAATA,8.52 ± 0.23
11,ACCTTATTTATTATTGCATGTGACCATCAGATGGTA [TGCATGCA_site288],9.73 ± 0.52
12,TAATATTTATAATAGTGTACACAATTATAAACTGAA [XGTACX_site8426],8.52 ± 0.24
13,TATTTATAAGTTTACGCATGCATATAATTATTAATA [TGCATGCA_site311],9.38 ± 0.4
14,TTTTTTTTTTTTTTTGTGCACAATTATTTCAATTTT [GTGCAC_site9884],8.61 ± 0.49
15,TTTATTTTCATATGAACACACATATTTATATTATAA [CACACA_site7165],8.62 ± 0.44
16,TAATAAAAGAAAAAAAGTACAGACATATTGAATTTT [XGTACX_site5044],8.53 ± 0.47
17,TACAATCTAAGGAGCACACAAAAATGGATAAATATA [CACACA_site933],8.79 ± 0.51
18,ATACATACATATATATGTACTTATATTTTACACATT [XGTACX_site1688],8.79 ± 0.28
19,GCTTGAATAATCAATAGTACACACATATAAATATAT [XGTACX_site5964],8.51 ± 0.23

row,Sequence,gcPBM binding intensity (ln)
1,AGGTGTGAGACCACGTTCACAAAATAAAATACATAA [CACACA_negctrl_site326],8.63 ± 0.4
2,AACACAAGAACAGAACGTACACACACATATATATAT [XGTACX_site7347],9.76 ± 0.16
3,CAGGCACTAATAAACACACACATATAAATATAAATA [CACACA_site6320],8.62 ± 0.66
4,ACATCAAGCAGACACACACACACACCCACCCACCCA [CACACA_site8012],9.15 ± 0.32
5,TTTTTTTTTTTTTTTTGTACTCATACATACTATCAT [XGTACX_site3650],8.32 ± 0.71
6,AATTTCTACTATTGTATGCACTTTCATACATACATA [GTGCAC_site9924],8.82 ± 0.27
7,ATAATAAAAAATACAAGTACACATATTATATATATA [XGTACX_site5355],8.93 ± 0.092
8,TTTAAAACCTTACATACACACAAATATATATATATA [CACACA_site677],9.98 ± 0.3
9,AATGCTATCATTAATGCACACATTTAAAATTAATAT [CACACA_site3548],8.57 ± 0.2
10,CAAACAATTAAACAAACACACATATACAAGTATTTA [CACACA_site5177],8.41 ± 0.33
11,TGTTCTTTTTATACTACACACTGATAAAAAAACAAA [CACACA_site3001],8.63 ± 0.31
12,TATATTTACTTATGAAGTACATATATATATATATAT [XGTACX_site5069],10.3 ± 0.21
13,TTTAAGTTTTTACTTTGTACGTATTATAATAAAATC [XGTACX_site5683],8.48 ± 0.28
14,GGATTGATAAGTGGTACACACATATATATTATATAT [CACACA_site2866],8.71 ± 0.3
15,GCATTGGGAATATATAGTACATATATATATATATAA [XGTACX_site2967],8.55 ± 0.21
16,AAATATAAAAATAGCACACATATATACCTATATATA [CACACA_site4204],8.37 ± 0.37
17,CAGACGCACGTATTTGCACACATTGCCACGTAATTA [CACACA_site3349],8.82 ± 0.28
18,TTTTTCTTTTTCTTTTTTTCTTTTTTTTTTTTTTTC [GTGCAC_negctrl_site727],8.32 ± 0.65
19,AACCATTCAACTGATGCATGCATTTAACATATAAAT [TGCATGCA_site961],9.69 ± 0.23

row,Sequence,gcPBM binding intensity (ln)
1,TTAAAAAAAATTTCAAGTACAAAGTAATATATATAT [XGTACX_site5718],9.34 ± 0.085
2,AAAAAAATTGGGAAAAGTACTTGCAGCTAGCTAAAA [XGTACX_site5178],8.93 ± 0.52
3,AAACAAATATAATATTGTACATATATATATATATAT [XGTACX_site3105],10.1 ± 0.41
4,GTTTTAAACAAAAATTGTACAATATAATCTTCCTAT [XGTACX_site2851],8.57 ± 0.36
5,GGATGGAGTAGTTAAGCATAATAAATAAAATTATGT [CACACA_negctrl_site578],8.46 ± 0.45
6,ATATATATATAATTTTGTACATAATAGCAATTCTAA [XGTACX_site653],9.64 ± 0.071
7,CAAAACCTTTTATGTACACACATATACATCCCACTT [CACACA_site5716],8.87 ± 0.31
8,AATAGCTAGCTGTGCACACAAACATATTTTCCAAAT [CACACA_site880],8.87 ± 0.37
9,AACAACTATTAATTTACACACATGTATATATTTTAC [CACACA_site3116],8.64 ± 0.42
10,AACAAAAAAAAAAAATGTACATATATATAATATATT [XGTACX_site3829],8.4 ± 0.29
11,TCATTTCACAAACACACACACACAATATATTTCCTT [CACACA_site3905],8.73 ± 0.49
12,CCACAAGCAGCGGAAACATGCATATGTTGAAATAAT [TGCATGCA_site610],8.74 ± 0.33
13,TAATAATATTATTAATGTACAAATATATATACATAT [XGTACX_site7348],8.37 ± 0.38
14,TATATATATATATATTGTACCCTTTTCAAACTTCTC [XGTACX_site2812],9.92 ± 0.3
15,GTTAAGAATATGTGTACACATATACATAAATACATA [CACACA_site4254],8.93 ± 0.4
16,ACCTCACAAATGAATACACACAAACATATATATTTA [CACACA_site4976],8.73 ± 0.44
17,AATATCATCCTTTTTTTTTATAAAATTTAAAATATA [CACACA_negctrl_site844],8.75 ± 0.86
18,TATAAGAGAATATATACACACAAAAATAAATACAGT [CACACA_site5000],9.18 ± 0.2
19,ATTTTATGTTGAAAGTGTACGTATTAATATGTAGAA [XGTACX_site245],8.79 ± 0.38
